≈ marks a conversion by molar mass, not a printed value. Where two headings read alike, the source gives them in different places.
Tests used:
M. smegmatis = assay: MIC by resazurin reduction microplate assay (REMA); assay type: cell-based, M. smegmatis MC^2155
E. coli = assay: MIC by REMA; assay type: cell-based, Escherichia coli; settings: Escherichia coli
P. putida = assay: MIC by REMA; assay type: cell-based, Pseudomonas putida; settings: Pseudomonas putida; P. putida, mean ± SEM, n = 5
M. tuberculosis = tested on: M. tuberculosis; design: method as in Jeney and Zsolnai, 1956; Abuhammad et al., 2012; settings: ref Jeney and Zsolnai, 1956, Abuhammad et al., 2012; cited from earlier work
M. bovis BCG = settings: ref Abuhammad et al., 2014; cited from earlier work
[1] = tested on: NAT enzyme from M. marinum; design: method as in earlier work; settings: covalent adduct with active site cysteine, ref Abuhammad et al., 2010, 2012, 2014; cited from earlier work
[2] = tested on: M. smegmatis:aroB / M. smegmatis:pMV261; assay: MIC by REMA against aroB-overexpressing and empty-vector strains; settings: for MIC: Mycolicibacterium smegmatis, mean ± SEM; for effect of overexpression of aroB on susceptibility: compared with the wild-type strain
[3] = assay type: in vitro ADME; settings: CD-1, mouse, microsomes, 1 μg·mL, pH 7.4
[4] = M. smegmatis, Table 1, mean ± SEM, n = 5
[5] = Mycolicibacterium smegmatis, M. smegmatis WT, Table 2, mean ± SEM, read-out: MIC
[6] = Mycolicibacterium smegmatis, MC^2155, M. smegmatis mc^2155 – wild type, Table 4, mean ± SEM, read-out: MIC
[7] = M. smegmatis:aroB (overexpression from pMV261)
[8] = M. smegmatis:pMV261 (empty vector)

Row | SMILES | MIC (M. smegmatis; [4]) [µg/mL] | MIC (M. smegmatis; [5]) [µg/mL] | MIC (M. smegmatis; [6]) [µg/mL] | MIC (E. coli) [µg/mL] | MIC (P. putida) [µg/mL] | MIC (M. tuberculosis) [µg/mL] | MIC (M. bovis BCG) [µg/mL] | inhibition of NAT enzyme [1] | MIC [2, 7] [µg/mL] | MIC [2, 8] [µg/mL] | effect of overexpression of aroB on susceptibility [2] | CLint [3] [μL·min^−1·mg^−1 protein]
1 | CN1CCC(O)(c2ccccc2)C(C(=O)c2ccccc2)C1 (stereo not drawn) [Compound 1] | 62.5 ± 0 (≈ 212 µM) | 56.2 ± 6.3 (≈ 190 µM) | 56.2 ± 6.3 (≈ 190 µM) | 250 (≈ 846 µM) | 250 (≈ 846 µM) | 5 (≈ 16.9 µM) | 6.25 to 12.5 | inhibits | 112 ± 12.5 (≈ 381 µM) | 112 ± 12.5 (≈ 381 µM) | partial resistance | 
2 | CN(CCC(=O)c1ccccc1)CCC(=O)c1ccccc1 [Compound 2, 3,3′-(methylazanediyl)bis(1-phenylpropan-1-one)] | 125 ± 0 (≈ 423 µM) | 112 ± 12.5 (≈ 381 µM) | 112 ± 12.5 (≈ 381 µM) | 250 (≈ 846 µM) | > 500 |  |  |  | 300 ± 49.9 (≈ 1020 µM) | 275 ± 61.2 (≈ 931 µM) | partial resistance | > 48
3 | CO[C@H]1/C=C/O[C@@]2(C)Oc3c(C)c(O)c4c(O)c(c(/C=N/N5CCN(C)CC5)c(O)c4c3C2=O)NC(=O)/C(C)=C\C=C\[C@H](C)[C@H](O)[C@@H](C)[C@@H](O)[C@@H](C)[C@H](OC(C)=O)[C@@H]1C [Rifampicin, reference compound] |  | 3.2 ± 0.5 (≈ 3.89 µM) | 7.5 ± 1.1 (≈ 9.11 µM) |  |  |  |  |  | 7.5 ± 1.1 (≈ 9.11 µM) | 7.5 ± 1.1 (≈ 9.11 µM) |  | 

From PMC5481654, “Identification of the anti-mycobacterial functional properties of piperidinol derivatives” (British journal of pharmacology, 2017)
